The supplement of paper PMC11417369
± gives the standard deviation of the averaged measurements. The list shows a part of the results.

The sequences below were run on PfAP2-I AP2 domain 3 (GST-tagged) (assay: gcPBM binding intensity (ln(normalized median fluorescence intensity)); higher = stronger DNA binding).
In short: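 An Agilent 4 × 180k array of primer-extended double-stranded 36-bp intergenic genomic probes, with negative controls, was incubated for 1 h with GST-tagged P. falciparum DNA-binding domains expressed in E. coli. Alexa488 anti-GST antibody detected bound protein, scanned at 488 nm. Binding intensity is the highest Masliner-normalised natural-log median intensity across replicate spots of either probe orientation.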
With “TTTTTTGCTAAGTGTACACAAATGTTTATTAATTTA [CACACA_site5859]” the “gcPBM binding intensity (ln)” value was 8.42 ± 0.27. With GATAAAATGAGACCAGTGCATTATTAGTTGTACACC the “gcPBM binding intensity (ln)” value was 11.3 ± 0.53. “TGTGCTTATCCTAACACACACAACATATAAGAAAAA [CACACA_site3319]” was tested, and the “gcPBM binding intensity (ln)” value was 8.92 ± 0.24. With “AAAAAATAAAAAATATGTACACATTCAAAATTTTAC [XGTACX_site8479]” the “gcPBM binding intensity (ln)” value was 7.81 ± 0.35. In the case of “TATACATATTTATACACACACACATATATTTATATA [CACACA_site6727]”, the “gcPBM binding intensity (ln)” value is reported as 7.95 ± 0.34. For “ATATATATATATATATGTACATATTACATTACTTAT [XGTACX_site749]”, the “gcPBM binding intensity (ln)” value was 9.38 ± 0.75. In the case of “AAAAAGAAAAAAAACACACACAAATATAAATAAATA [CACACA_site1183]”, the “gcPBM binding intensity (ln)” value is reported as 7.42 ± 0.71. With “ATAAAACAAGCAAATCGTACAAAAGGATAATATATA [XGTACX_site5592]” the “gcPBM binding intensity (ln)” value was 7.84 ± 0.55. In the case of “ATATATATTTAAGAGGGTACAAAAATTTATGAGCAT [XGTACX_site6156]”, the “gcPBM binding intensity (ln)” value is reported as 8.07 ± 0.61. With “TTAGGTAGAAAAAAGACACACACATTATATATATAT [CACACA_site8016]” the “gcPBM binding intensity (ln)” value was 9.15 ± 0.014. In the case of “ATGTATGGTTTATATGTTCATTTGTTCACCTATTTA [CACACA_negctrl_site1533]”, the “gcPBM binding intensity (ln)” value is reported as 7.86 ± 0.73. In the case of “AAAAAAAAAAAAAACACACACACACCCATACCCATA [CACACA_site5577]”, the “gcPBM binding intensity (ln)” value is reported as 8.47 ± 0.49. “TCTTTGGTAATATATATGTATAAATATAAATATATA [CACACA_negctrl_site1566]” was tested, and the “gcPBM binding intensity (ln)” value was 7.56 ± 0.48. “ATATATATATATGTTAGTACATAACAAGTGTGCATA [XGTACX_site1527]” was tested, and the “gcPBM binding intensity (ln)” value was 9.36 ± 0.11. “GTATATATTTCCAGAAGTACTTATTTTTATGTATGT [XGTACX_site4079]” was tested, and the “gcPBM binding intensity (ln)” value was 7.99 ± 0.42. “AATCTATATTAATACACACACACATATATTTATATA [CACACA_site7732]” was tested, and the “gcPBM binding intensity (ln)” value was 8.13 ± 0.33. “TTTATTTTGACAGATTGTACACTTTATACATGTTTT [XGTACX_site2356]” was tested, and the “gcPBM binding intensity (ln)” value was 7.89 ± 0.55. For “TGAAAAAAGAAAAATACACACATATAACATAATATA [CACACA_site7126]”, the “gcPBM binding intensity (ln)” value was 7.57 ± 0.57. With “AAAAATGCCAGAAAACGTACTCGGATTTTCTAATAT [XGTACX_site6552]” the “gcPBM binding intensity (ln)” value was 7.41 ± 0.62. For “TGATTACATATGATGTGTACCTAATTTTGTTTACAC [XGTACX_site7032]”, the “gcPBM binding intensity (ln)” value was 7.69 ± 0.51. In the case of “AAAACACGCGGACACACACACACACCCACCCATATA [CACACA_site8688]”, the “gcPBM binding intensity (ln)” value is reported as 8.03 ± 0.47. “TTTTAATATTTTGCCTGTACATAAAAGTGAGAAGAT [XGTACX_site2503]” was tested, and the “gcPBM binding intensity (ln)” value was 8.39 ± 0.4. In the case of “TTATATTTATTGATATGTACATATTATAATTAATTA [XGTACX_site586]”, the “gcPBM binding intensity (ln)” value is reported as 7.75 ± 0.32. For “AAATAGTTCATAAAAAGTACAAAATTTTTATCCGTA [XGTACX_site2796]”, the “gcPBM binding intensity (ln)” value was 7.61 ± 0.49. For “ATCATTCATTTAACAACACACAACATATTTATCATA [CACACA_site1041]”, the “gcPBM binding intensity (ln)” value was 8.02 ± 0.53. With “TATAAAGGTTGGTACTGTACAATATAAGAAAAAAAA [XGTACX_site435]” the “gcPBM binding intensity (ln)” value was 8.01 ± 0.57. “TATATATTATATAAGAGTACATATAATTATAGTTTT [XGTACX_site5039]” was tested, and the “gcPBM binding intensity (ln)” value was 7.71 ± 0.52. “GTGTGGAGTTACAAAGAGGAGAACCTCACAGTAATC [CACACA_negctrl_site527]” was tested, and the “gcPBM binding intensity (ln)” value was 8.03 ± 0.12. With “AAATTCGTTATAAAAACATGCAACGATCAACATTGT [TGCATGCA_site844]” the “gcPBM binding intensity (ln)” value was 7.59 ± 0.57. “TTACTCTTTATATAATGTACATATATATATATATTA [XGTACX_site2624]” was tested, and the “gcPBM binding intensity (ln)” value was 8 ± 0.48. “TTTTTTATATTGTGATGTACAAATTTTAAAATGTAG [XGTACX_site1875]” was tested, and the “gcPBM binding intensity (ln)” value was 8.01 ± 0.17. For “ATATATATATATATAATACACACTTATGAAATGTCT [CACACA_site1827]”, the “gcPBM binding intensity (ln)” value was 9.4 ± 0.28. In the case of “TTATGTGATAAAAAAAAAATACAACAAAGTTAAATA [GTGCAC_negctrl_site36]”, the “gcPBM binding intensity (ln)” value is reported as 7.46 ± 0.64. For “TTACACATATTTTTAATTATTCTGAATTCAAAAAAA [CACACA_negctrl_site1706]”, the “gcPBM binding intensity (ln)” value was 7.62 ± 0.43. In the case of “GTAATATTAAAATATACACACATAGAATATATATAT [CACACA_site4391]”, the “gcPBM binding intensity (ln)” value is reported as 8.96 ± 0.042. With “ATAATCATAAAATAAACACACATATATAAATATATT [CACACA_site276]” the “gcPBM binding intensity (ln)” value was 7.57 ± 0.36. “AAAAAAATATAAATACGTACATATATATATATATAT [XGTACX_site432]” was tested, and the “gcPBM binding intensity (ln)” value was 9.39 ± 0.28. With “CTATTCTATTTTTATTGTACATATATATAATTTGAA [XGTACX_site389]” the “gcPBM binding intensity (ln)” value was 8.04 ± 0.41. In the case of “ATATAATGGCTAAATAGTACAATATAATATTTTTTA [XGTACX_site8922]”, the “gcPBM binding intensity (ln)” value is reported as 7.55 ± 0.48. In the case of “ACACATGAATATTGTAGTACGGCAATTAATATAATA [XGTACX_site4589]”, the “gcPBM binding intensity (ln)” value is reported as 7.74 ± 0.43. “TGGAATAATACGCGTACACACATATAAATATTAATA [CACACA_site6211]” was tested, and the “gcPBM binding intensity (ln)” value was 8.16 ± 0.13. For “AGAAAGGAAAAAACCTCACACATGCTTTTAATAGTA [CACACA_site4602]”, the “gcPBM binding intensity (ln)” value was 7.49 ± 0.7. For “AAAAATTCATTTTTATGTACGTACAAATTCTTCGTT [XGTACX_site2471]”, the “gcPBM binding intensity (ln)” value was 8.17 ± 0.28. With “AGTAAATTATATATCTGTACATATATATATGTGTAT [XGTACX_site5519]” the “gcPBM binding intensity (ln)” value was 7.84 ± 0.58.
